Measured values: PubChem BioAssay AID624417 (National Center for Advancing Translational Sciences (NCATS), 2012)
Values joined by “and” are separate entries in the source; they are usually repeats but may differ in a detail not shown here. Identical values can stand only once. The campaign covered roughly 410,000 compounds. About 6,400 (1.6%) were called active. This list was built around the results that the source calls inconclusive (neither active nor inactive); the mix of calls is not that of the screen. The call rests on the fitted dose curve; in most records, active means well fitted inhibition curve with a large enough effect; inconclusive means small, poorly fitted or top-dose-only effect; inactive means no such curve, though single readings can be large or run the other way. Potencies beside an inconclusive call are fits to weak or partial responses and may not hold up.

These compounds were tested against Glucagon-like peptide 1 receptor (Homo sapiens) (UniProt P43220) (assay: qHTS of GLP-1 Receptor Inverse Agonists (Inhibition Mode)). Details: HEK293 GLP-1R CRE-luciferase, luminescence, 24 h, GLP-1R form is constitutively active; activity change, negative = inhibition: at 38.3 µM (top of the series) unless noted.
Procedure, shortened: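 Using stably transfected HEK293 (constitutively active GLP-1R, cAMP-luciferase reporter), compounds were incubated 24 hr and luciferase measured by luminescence.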
Further: nearly all actives have a fitted effect of over 55% in size.
On the % scale 0 is the no-effect control and ±100 the full control effect; potency means the concentration at half of the fitted maximal effect; tags describe the fitted curve by direction and shape.

Chain of UniProt P43220 (P43220 whole entry, looked up): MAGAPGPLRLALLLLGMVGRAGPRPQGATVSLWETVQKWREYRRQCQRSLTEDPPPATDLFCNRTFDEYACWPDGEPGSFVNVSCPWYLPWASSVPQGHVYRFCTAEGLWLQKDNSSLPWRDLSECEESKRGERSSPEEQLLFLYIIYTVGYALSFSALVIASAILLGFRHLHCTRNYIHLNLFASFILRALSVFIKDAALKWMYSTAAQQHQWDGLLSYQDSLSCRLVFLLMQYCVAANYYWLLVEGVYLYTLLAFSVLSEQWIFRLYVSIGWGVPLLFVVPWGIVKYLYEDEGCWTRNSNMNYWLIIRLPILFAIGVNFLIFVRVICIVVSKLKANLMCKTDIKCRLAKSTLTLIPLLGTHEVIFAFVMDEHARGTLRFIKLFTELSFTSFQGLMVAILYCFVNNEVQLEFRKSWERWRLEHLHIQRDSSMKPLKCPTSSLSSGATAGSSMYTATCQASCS

Question: Which Potency does the source give for `O=C(COCc1cc(-c2ccc3c(c2)OCO3)on1)NCc1ccc(F)cc1` here?
Answer: The Potency was inconclusive: 28.2 µM [inhibitor, single point].

Question: `Cc1ccc(-n2ncc(C(=O)Nc3c(Cl)cccc3Cl)c2C2CCNCC2)cc1` was tested. Which Potency did it give?
Answer: The Potency was inconclusive: 7.94 µM [inhibitor, partial curve, poor fit].

Question: `CC(C)(C)C1CCN2CCCC(c3ccccc3)(C1)C2=O` (configuration not stated) was tested. Which “activity change, negative = inhibition” value did it give?
Answer: The value was inactive: -19.2%.

Question: `O=C(O)CCCN1C(=O)/C(=C/c2ccc(-c3nc4ccccc4s3)o2)SC1=S` was tested. Which “activity change, negative = inhibition” value did it give?
Answer: Its value is inactive: 13.3%.

Question: Which Potency does the source give for `Cc1ccc(-c2nc(Nc3ccc(O)cc3)c3ccccc3n2)cc1` here?
Answer: The Potency was inconclusive: 12.6 µM [inhibitor, partial curve, poor fit].

Question: With `FC(F)(F)c1ccccc1NC(=S)Nc1ccccc1` as the compound, how does the “activity change, negative = inhibition” value read?
Answer: The value was inactive: 19.6%.

Question: Which Potency does the source give for `Cc1nn(-c2ccccc2)c2sc(C(=O)Nc3cccc(O)c3)cc12` here?
Answer: The Potency was inconclusive: 10 µM [inhibitor, single point].

Question: Which “activity change, negative = inhibition” value does the source give for `O=C(NC1CCN(Cc2ccccc2)CC1)C1COc2ccccc2O1` (configuration not stated) here?
Answer: The value was inactive: -36.2%.

Question: With `CCOc1cccc(-c2nc3cc(C)ccc3o2)c1` as the compound, how does the “activity change, negative = inhibition” value read?
Answer: Its value is inactive: 27.7%.

Question: With `COc1ccc(C(CNC(=O)c2cc3ccccc3o2)N2CCCC2)cc1` (configuration not stated) as the compound, how does the Potency read?
Answer: Its Potency is inconclusive: 31.6 µM [inhibitor, partial curve, poor fit].

Question: With `COc1ccccc1NC(=O)CSc1nnnn1-c1ccc(F)cc1` as the compound, how does the Potency read?
Answer: The Potency was inconclusive: 10 µM [inhibitor, single point].

Question: Which activity change, negative = inhibition does the source give for `COc1cc(CN(C(=O)COc2ccc(Cl)c(C)c2)c2ccccn2)cc(OC)c1OC` here?
Answer: The activity change, negative = inhibition was inconclusive: -32% [inhibitor].

Question: How did the “activity change, negative = inhibition” value turn out when `Cc1csc2nc(COc3ccccc3NC(=O)c3ccccc3Cl)cc(=O)n12` was run?
Answer: The value was inactive: -21.3%.

Question: With `COCCCN=C(c1ccco1)n1c(=S)nc(-c2ccco2)n(CCCOC)c1=S` as the compound, how does the “activity change, negative = inhibition” value read?
Answer: Its value is inactive: 24.8%.

Question: For `COc1cc(C)c(Cl)cc1S(=O)(=O)NCc1ccco1`, which Potency is on record?
Answer: The Potency was inconclusive: 6.31 µM [inhibitor, partial curve, poor fit].

Question: `CCCOC1CCCN(C(=O)c2cc(COc3ccc(F)c(F)c3)on2)C1` (configuration not stated) was tested. Which Potency did it give?
Answer: The Potency was inconclusive: 10 µM [inhibitor, partial curve, poor fit].

Question: For `O=C(Nc1cc(Cl)cc(Cl)c1)c1ccc(F)c(S(=O)(=O)NCc2ccccc2Cl)c1`, which Potency is on record?
Answer: The Potency was inconclusive: 11.2 µM [inhibitor, partial curve, poor fit].

Question: With `CCOC(=O)Cc1csc(NC(=S)NC(=O)c2ccc(Cl)cc2)n1` as the compound, how does the Potency read?
Answer: The Potency was inconclusive: 20 µM [inhibitor, single point].

Question: For `COc1cccc(-c2nc(CS(=O)(=O)CC(=O)NCCc3ccc(C)cc3)c(C)o2)c1`, which Potency is on record?
Answer: The Potency was inconclusive: 22.4 µM [inhibitor, single point].

Question: For `COc1ccc2sc(-c3ccc(SC)cc3)c(C#CC(C)(C)O)c2c1`, which Potency is on record?
Answer: Its Potency is inconclusive: 2.82 µM [inhibitor, full curve, poor fit].

Question: `COc1cc(OC)c(Nc2c3c(nc4nc(-c5cccs5)nn24)CCCC3)cc1Cl` was tested. Which Potency did it give?
Answer: The Potency was inconclusive: 28.2 µM [inhibitor, single point].

Question: For `O=C(c1ccc(OC2CCN(C/C=C/c3ccccc3)CC2)cc1)N1CCCC1`, which Potency is on record?
Answer: The Potency was inconclusive: 28.2 µM [inhibitor, single point].

Question: With `OCCC1CN(Cc2cc3ccccc3o2)CCN1Cc1ccc(F)cc1` (configuration not stated) as the compound, how does the Potency read?
Answer: The Potency was inconclusive: 22.4 µM [inhibitor, partial curve, poor fit].

Question: For `COc1cccc(/C=C2\SC(=S)N(CCCC(=O)N3CCCCC3)C2=O)c1`, which Potency is on record?
Answer: Its Potency is inconclusive: 0.501 µM [inhibitor, full curve, poor fit].

Question: Which Potency does the source give for `Cc1cc(C)cc(NC(=O)C2CC3CCC2C3)c1` (configuration not stated) here?
Answer: Its Potency is inconclusive: 28.2 µM [inhibitor, single point].

Question: How did the Potency turn out when `C/C=C/c1ccc(OCCCNC2CCCC2)c(OC)c1` was run?
Answer: The Potency was inconclusive: 7.08 µM [inhibitor, partial curve, poor fit].

Question: With `Cc1ccccc1OCC(=O)O/N=C(\N)Cc1ccc(Cl)cc1` as the compound, how does the Potency read?
Answer: Its Potency is inconclusive: 28.2 µM [inhibitor, single point].

Question: Which Potency does the source give for `Cc1ccc(C(=O)CCNc2cccc(Br)c2)o1` here?
Answer: The Potency was inconclusive: 28.2 µM [inhibitor, single point].

Question: For `CC1(C)Cc2nc3oc4c(NCCCN5CCOCC5)ncnc4c3cc2CO1`, which “activity change, negative = inhibition” value is on record?
Answer: Its value is inactive: 11.4%.

Question: Which Potency does the source give for `Cc1onc(-c2ccccc2)c1C(=O)Nc1nc2c(s1)C(=O)CC(C)(C)C2` here?
Answer: Its Potency is inconclusive: 28.2 µM [inhibitor, single point].

Question: How did the Potency turn out when `O=C(Nc1ccccc1C(=O)OCC(=O)c1c[nH]c2ccccc12)c1ccco1` was run?
Answer: The Potency was inconclusive: 10 µM [inhibitor, single point].

Question: How did the “activity change, negative = inhibition” value turn out when `Cc1cc(C)c2oc(-c3ccc(C)c(NC(=S)NC(=O)c4cccs4)c3)nc2c1` was run?
Answer: The value was inactive: -18%.

Question: With `COc1ccccc1N1CCN(CCCCN2C(=O)C3CCCN3C2=O)CC1` (configuration not stated) as the compound, how does the “activity change, negative = inhibition” value read?
Answer: The value was inactive: -2.17%.

Question: How did the Potency turn out when `COc1ccc(N(C)S(=O)(=O)c2cccc(C(=O)NCc3ccc(C)cc3)c2)cc1` was run?
Answer: Its Potency is inconclusive: 10 µM [inhibitor, partial curve, poor fit].

Question: For `CCOC(=O)CCS(=O)(=O)c1nc(-c2ccccc2)cc(C(F)(F)F)n1`, which “activity change, negative = inhibition” value is on record?
Answer: Its value is inactive: -11.8%.

Question: Which Potency does the source give for `CCNc1nc(-c2sc(NC(=O)C(C)(C)C)nc2C)c(-n2cc(-c3ccccc3)nn2)s1` here?
Answer: Its Potency is active: 10 µM.

Question: How did the Potency turn out when `COc1ccc(S(=O)(=O)Nc2cccc(-c3ccc(N4CCCCCC4)nn3)c2)c(OC)c1` was run?
Answer: Its Potency is inconclusive: 28.2 µM [inhibitor, single point] and inconclusive: 22.4 µM [inhibitor, single point].

Question: With `Cc1ccc(S(=O)(=O)N2CCN(C(=O)CSC3CCCC3)CC2)c(C)c1` as the compound, how does the Potency read?
Answer: The Potency was inconclusive: 11.2 µM [inhibitor, single point].

Question: How did the Potency turn out when `CC1(C(=O)Nc2ncc(Cc3ccc(Br)cc3)s2)Cc2ccccc2C(=O)O1` (configuration not stated) was run?
Answer: Its Potency is inconclusive: 6.31 µM [inhibitor, partial curve, poor fit].

Question: Which Potency does the source give for `O=S(=O)(Nc1ccccc1)c1ccc(Oc2ncc(C(F)(F)F)cc2Cl)cc1` here?
Answer: The Potency was inconclusive: 28.2 µM [inhibitor, single point].

Question: With `Cc1ccc(N2CC(NC(=O)C3CCCCC3)CC2=O)cc1C` (configuration not stated) as the compound, how does the “activity change, negative = inhibition” value read?
Answer: Its value is inactive: -8.85%.

Question: How did the “activity change, negative = inhibition” value turn out when `COc1ccc(CC(=O)NNc2ncnc3c2cnn3-c2ccc(C)cc2)cc1` was run?
Answer: Its value is inactive: -11.9%.

Question: With `COc1ccc(C(=O)CSc2ccc(-c3ccccc3)nn2)cc1` as the compound, how does the “activity change, negative = inhibition” value read?
Answer: Its value is inactive: 16.2%.

Question: Which Potency does the source give for `CCOc1ccc(CCN2C(=O)C(=O)N([C@@H](Cc3ccccc3)CN3CCC[C@H]3CN3C(=O)C(=O)NC[C@@H]3Cc3ccccc3)C[C@@H]2CC(C)C)cc1` here?
Answer: The Potency was inconclusive: 28.2 µM [inhibitor, single point].

Question: With `Cc1ccc(NC(=O)C(C)c2cccc(C(=O)c3ccccc3)c2)cc1O` (configuration not stated) as the compound, how does the Potency read?
Answer: Its Potency is inconclusive: 11.2 µM [inhibitor, single point].

Question: Which Potency does the source give for `Cc1ccc(Cl)cc1N1CCN(Cc2nc3ccsc3c(=O)[nH]2)CC1` here?
Answer: The Potency was inconclusive: 10 µM [inhibitor, partial curve, poor fit].

Question: Which Potency does the source give for `COc1cc(OC)c(NC(=O)c2c3c(nn2C)-c2ccccc2SC3)cc1Cl` here?
Answer: Its Potency is inconclusive: 28.2 µM [inhibitor, single point].

Question: How did the Potency turn out when `Cc1ccc(NC(=O)CN(c2cc(C)cc(C)c2)S(=O)(=O)c2c(C)noc2C)nc1` was run?
Answer: Its Potency is inconclusive: 11.2 µM [inhibitor, single point].

Question: For `Cc1ccc(NC(=O)CC2CCCC2)c(Br)c1`, which Potency is on record?
Answer: Its Potency is inconclusive: 28.2 µM [inhibitor, single point].

Question: With `CCOc1ccc(NC(=O)CC2C(=O)N(CC)C(=S)N2CCN2CCOCC2)cc1` (configuration not stated) as the compound, how does the “activity change, negative = inhibition” value read?
Answer: Its value is inactive: -32.5%.

Question: `O=C(NCCCN1CCCC1)c1cc(Sc2ccc(F)cc2)nc2ccccc12` was tested. Which Potency did it give?
Answer: The Potency was inconclusive: 10 µM [inhibitor, partial curve].

Question: `CC(Oc1cccc(Cl)c1)C(=O)NCc1ccc(S(N)(=O)=O)cc1` (configuration not stated) was tested. Which “activity change, negative = inhibition” value did it give?
Answer: The value was inactive: 13%.

Question: `CCN(CCn1cccn1)C(=O)c1cc(COc2cc(C)ccc2C)on1` was tested. Which Potency did it give?
Answer: Its Potency is inconclusive: 12.6 µM [inhibitor, single point].

Question: With `Cc1nc(-c2ccc3c(c2)OCO3)cs1` as the compound, how does the “activity change, negative = inhibition” value read?
Answer: The value was inactive: 18.7%.

Question: How did the Potency turn out when `COc1ccc(C(=O)NCCn2ccc3ccccc32)cc1` was run?
Answer: The Potency was inconclusive: 28.2 µM [inhibitor, single point].

Question: `CC(/C=C/c1ccccc1)=N\NC(N)=S` was tested. Which Potency did it give?
Answer: The Potency was active: 2.51 µM.

Question: Which Potency does the source give for `CCCCn1c(N)c(N(CC(C)C)C(=O)c2oc3ccc(Br)cc3c2C)c(=O)[nH]c1=O` here?
Answer: The Potency was inconclusive: 28.2 µM [inhibitor, single point].

Question: Which Potency does the source give for `Cc1cccc([C@@H](NC(=O)OC(C)(C)C)C(=O)OC(C)(C)C)c1` here?
Answer: The Potency was inconclusive: 31.6 µM [inhibitor, single point].

Question: For `CN1CCN(S(=O)(=O)c2ccc(N3CCN(C(=O)c4ccccc4)CC3)nc2)CC1`, which Potency is on record?
Answer: Its Potency is inconclusive: 10 µM [inhibitor, single point].

Question: How did the Potency turn out when `CCN(CC)c1ccc(NS(=O)(=O)c2cc(-c3cc(C)no3)ccc2C)c(C)c1` was run?
Answer: Its Potency is inconclusive: 28.2 µM [inhibitor, single point].

Question: For `Cc1ccc(OCC(O)CNCc2ccc(F)cc2)cc1` (configuration not stated), which Potency is on record?
Answer: Its Potency is inconclusive: 7.08 µM [inhibitor, partial curve, poor fit].

Question: With `COc1ccccc1N1CCN(c2nc(C)nc3c2oc2ccccc23)CC1` as the compound, how does the Potency read?
Answer: The Potency was inconclusive: 28.2 µM [inhibitor, single point].

Question: How did the “activity change, negative = inhibition” value turn out when `Cn1cc(Br)c(C(=O)N2CCc3ccccc32)n1` was run?
Answer: Its value is inactive: 0.182%.

Question: For `O=C(NCc1ccccc1Cl)[C@@H]1CCCN1S(=O)(=O)c1ccc(Cl)cc1`, which Potency is on record?
Answer: Its Potency is inconclusive: 5.01 µM [inhibitor, full curve, poor fit].

Question: `COc1cc(NC(=O)C2CCCCC2)c(OC)cc1NC(=O)CN1CCCCC1` was tested. Which Potency did it give?
Answer: Its Potency is active: 2.51 µM.

Question: For `Cc1c(Cl)cccc1-c1ccc(/C=C(\C#N)c2nc3ccccc3[nH]2)o1`, which Potency is on record?
Answer: The Potency was inconclusive: 3.98 µM [inhibitor, partial curve, poor fit].

Question: How did the Potency turn out when `COc1ccc(S(=O)(=O)N2c3ccccc3OCC2c2ccccc2)cc1` (configuration not stated) was run?
Answer: Its Potency is inconclusive: 0.501 µM [inhibitor, full curve, poor fit].
